Measured values: PubChem BioAssay AID588855 (National Center for Advancing Translational Sciences (NCATS), 2011)
Hit rate of the full screen: of about 410,000 compounds, about 5,000 (1.2%) were called active. Inconclusive means that the source gave no clear call. Such entries were picked first, then a sample of the others. Calls come from the whole dose curve; as a rule, active = well fitted inhibition curve with a large enough effect; inconclusive = small, poorly fitted or top-dose-only effect; inactive = no such curve, though single readings can be large or run the other way. A potency beside an inconclusive call is a rough fit, not a confirmed value.
% is set by controls: 0 for no effect and ±100 for the full control effect; potency is the fitted concentration of half-maximal effect; tags give direction and shape of the fitted curve.

Assay: qHTS for Inhibitors of TGF-b; note: nearly all actives have a fitted effect of over 65% in size
Settings: HepG2 CAGA-GFP TGF-b/SMAD3 reporter, GFP fluorescence, 18 h, TGF-beta stimulated, 500 pg/mL final; series mostly up to 46.1 µM; activity, negative = inhibition: at the top concentration
Summary of the method: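 First, reporter cells (HEPG2 CAGA-GFP) rested 2 h at 37 degrees C. Next, compounds were pinned in and TGF-beta added to 500 pg/mL final. After 18 h, GFP was imaged per cell and summed per well.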
With C=CCNC(=O)CSc1nc2sccc2c(=O)n1-c1ccccc1 the Potency was inconclusive: 1 µM [inhibitor, partial curve, poor fit]. With O=C(CSc1nc2c([nH]c3ccccc32)c(=O)n1-c1ccc(Cl)cc1)N1CCOCC1 the “activity, negative = inhibition” value was inactive: 3.79%. In the case of CCN(CC)S(=O)(=O)c1cc(Cl)ccc1OC, the “activity, negative = inhibition” value is reported as inactive: 10.1%. For Cc1ccc(C)c(OCC(=O)Nc2ccc3c(c2)OCO3)c1, the Potency was inconclusive: 35.5 µM [inhibitor, single point]. For COc1ccc(CNC(=O)CSc2nnc3c(Cl)cc(C(F)(F)F)cn23)cc1OC, the Potency was inconclusive: 6.31 µM [inhibitor, single point]. With CC(=O)c1cccc(-c2ccnc3c2CC(C(=O)Nc2ccc(C(C)C)cc2)O3)c1 (stereo not given) the “activity, negative = inhibition” value was inactive: -8.26%. With COc1ccc(O)c(/C=N/NC(=S)Nc2cccnc2)c1 the Potency was inconclusive: 0.199 µM [inhibitor, full curve]. In the case of Cc1cccc(CCNS(=O)(=O)c2ccc3c(c2)NC(=O)CS3)c1, the Potency is reported as inconclusive: 35.5 µM [inhibitor, single point]. In the case of COCc1cc([C@@H]2C[C@H]3CN(c4ccccc4)C(=O)[C@]34CCCN24)ccc1OC, the Potency is reported as inconclusive: 10 µM [inhibitor, partial curve, poor fit]. For OC(c1cccc(CN2CCCCC2)c1)c1ncc(-c2cccc(C(F)(F)F)c2)[nH]1 (stereo not given), the “activity, negative = inhibition” value was inactive: -27.9%. In the case of Cc1ccc(NC(=O)Cn2nnc(C(=O)NCc3cccs3)c2N)c(C)c1, the “activity, negative = inhibition” value is reported as inactive: 11.6%. For Cc1cc(Br)c(S(=O)(=O)NCc2ccncc2)cc1C, the Potency was inconclusive: 0.316 µM [inhibitor, full curve, poor fit]. With O=C(C1CCC(CNS(=O)(=O)c2cccc3cccnc23)CC1)N1CCc2ccccc21 (stereo not given) the “activity, negative = inhibition” value was inactive: -29.7%. For CC(=O)c1ccc(N2CCN(CC(O)COC(c3ccccc3)c3ccccc3C)CC2)cc1 (stereo not given), the Potency was inconclusive: 22.4 µM [inhibitor, single point]. For O=C1C2C3C=CC(CC3)C2C(=O)N1/N=C/c1ccc(O)c(O)c1 (stereo not given), the Potency was inconclusive: 0.112 µM [inhibitor, full curve, poor fit]. For COc1ccc(Cc2noc(CN3CCN(c4ccc(Cl)cn4)CC3)n2)cc1OC, the “activity, negative = inhibition” value was inactive: -24.8%. With COc1ccc(OC)c(NC(=O)COc2ccc(S(=O)(=O)N3CCCC3)cc2)c1 the Potency was inconclusive: 0.112 µM [inhibitor, full curve, poor fit]. In the case of CC1(C)CC(=O)C(C2NCCc3ccccc32)=C(O)C1 (stereo not given), the “activity, negative = inhibition” value is reported as inactive: 16.6%. For O=C1CCCc2c1[nH]c1ccc(Cl)cc21, the Potency was inconclusive: 2.51 µM [inhibitor, partial curve, poor fit]. In the case of Cc1nnc(Nc2ccc3c(c2)ncn3C)c2ccccc12, the Potency is reported as inconclusive: 20 µM [inhibitor, single point]. In the case of O=[N+]([O-])c1ccc(/C=C/c2ccnc3ccccc23)cc1, the “activity, negative = inhibition” value is reported as inactive: -16.2%. In the case of O=C(NCc1cccs1)c1nc2c(nnn2Cc2ccc(F)cc2)c(=O)[nH]1, the Potency is reported as inconclusive: 35.5 µM [inhibitor, single point]. With Cc1ccccc1CN1C(=O)c2ccccc2Sc2ccc(C(=O)N3CCCC3)cc21 the Potency was inconclusive: 0.631 µM [inhibitor, full curve, poor fit]. With COc1cc2nc(C3CCC3)nc(N3CCN(c4ccccn4)CC3)c2cc1OC the “activity, negative = inhibition” value was inactive: 12.7%. With COc1cc(OC)c(C(=O)OC(C)C(=O)Nc2cc(C(F)(F)F)ccc2Cl)cc1OC (stereo not given) the Potency was inconclusive: 3.16 µM [inhibitor, partial curve, poor fit]. For CCCN(CCC)c1ncnc2nc[nH]c12, the Potency was inconclusive: 35.5 µM [inhibitor, single point]. For COc1ccccc1C(=O)Nc1ccnn1C1CCN(C/C=C/c2ccccc2)CC1, the “activity, negative = inhibition” value was inactive: -3.88%. In the case of COc1ccc(CN(C)C(C)C(=O)Nc2ccc([N+](=O)[O-])cc2Cl)cc1OC (stereo not given), the Potency is reported as inconclusive: 28.2 µM [inhibitor, single point]. With Cc1ccccc1Nc1ncnc2c1cnn2C the Potency was “inactive”. With CCOc1ccc(OCCC(=O)OCC(=O)NC(C)c2ccccc2)cc1 (stereo not given) the “activity, negative = inhibition” value was inactive: -0.164%. With CN(CCc1ccccc1)C(=O)c1ccc(NC(=O)Cc2ccc(NC(=O)C3CCCN(C(=O)C4CCC4)C3)cc2)cc1 (stereo not given) the Potency was inconclusive: 10 µM [inhibitor, partial curve, poor fit]. For CC(C)CSc1ncnc2c1oc1nc3c(cc12)COC(C)(C)C3, the Potency was inconclusive: 35.5 µM [inhibitor, single point]. With CC(C)NC(=O)CN1C(=O)c2cccc3cccc1c23 the “activity, negative = inhibition” value was inactive: 13.5%. For Cc1ccc(-c2nc(CCN3C(=O)c4ccccc4C3=O)cs2)cc1, the “activity, negative = inhibition” value was inactive: 41.4%. For CCOc1ccc(CNCc2c(C(=O)O)n(Cc3ccc(C)cc3)c3cc(C)ccc23)cc1, the Potency was inconclusive: 15.8 µM [inhibitor, single point]. In the case of O=C(CN1C(=O)NC2(CCCC2)C1=O)NCCc1ccc(Cl)cc1Cl, the “activity, negative = inhibition” value is reported as inactive: 1.54%. In the case of CNc1ccc(C(=O)Oc2cc(O/N=[N+](\[O-])N(C)C)c([N+](=O)[O-])cc2[N+](=O)[O-])cc1, the “activity, negative = inhibition” value is reported as inactive: -10.8%. In the case of C=CCNCCCOc1ccc(Cl)cc1C(C)(C)C, the Potency is reported as inconclusive: 35.5 µM [inhibitor, single point]. For COc1cccc(NC(=O)[C@@H]2CCCN2C(=O)[C@@H]2Cc3ccccc3CN2C(=O)OC(C)(C)C)c1, the Potency was inconclusive: 10 µM [inhibitor, partial curve]. In the case of COc1cccc(C2CNC3(CCCC(C)C3)c3[nH]c4ccccc4c32)c1OC (stereo not given), the Potency is reported as inconclusive: 35.5 µM [inhibitor, single point]. For CCn1c(SCC(=O)Nc2ncc(C(F)(F)F)cc2Cl)nnc1-c1cccc(C)c1, the “activity, negative = inhibition” value was inactive: -9.57%. In the case of Nc1ccccc1SCc1csc(-c2ccc(Cl)cc2)n1, the “activity, negative = inhibition” value is reported as inactive: -30%. With O=C(Nc1cccnc1)C1CCN(S(=O)(=O)c2ccc(Cl)cc2)CC1 the “activity, negative = inhibition” value was inactive: -0.223%. With C=C(C)C(=O)NNc1ccccc1 the “activity, negative = inhibition” value was inactive: 4.31%. With CC(OC(=O)CC1CCCC1)C(=O)Nc1ccc(S(N)(=O)=O)cc1 (stereo not given) the “activity, negative = inhibition” value was inactive: 6.21%. With Cc1ccc(C(=O)Nc2nnc(S(=O)(=O)N3c4ccccc4CC3C)s2)cc1 (stereo not given) the “activity, negative = inhibition” value was inactive: -29.2%. For COc1ccc(NC(=O)c2ccco2)cc1NC(=O)COc1ccccc1, the Potency was inconclusive: 1 µM [inhibitor, full curve, poor fit]. With COc1cccc(CN2CCC(C(=O)Nc3ccc(-c4cccc(C)c4)cc3)CC2)c1O the Potency was inconclusive: 12.6 µM [inhibitor, partial curve, poor fit]. With Cc1cc(C)c(C(=O)Nc2ccc3c(c2)OCCO3)c(C)c1 the “activity, negative = inhibition” value was inactive: -0.697%. With CN1CCN(c2ccc([N+](=O)[O-])c(-n3nc(-c4ccccc4)c4ccccc4c3=O)c2)CC1 the “activity, negative = inhibition” value was inactive: 3.93%. In the case of Cn1nc(C(F)(F)F)c(/C=N/OC(=O)c2ccccc2Cl)c1SCc1ccccc1Cl, the Potency is reported as inconclusive: 35.5 µM [inhibitor, single point]. With Cc1ccc(/C=C/C(=O)c2ccccc2O)cc1 the Potency was inconclusive: 17.8 µM [inhibitor, single point]. In the case of COc1cccc(-c2nnc(-c3ccccc3NC(=O)c3cccc(C(F)(F)F)c3)o2)c1, the “activity, negative = inhibition” value is reported as inactive: 2.86%. For O=C(CN1C(=O)c2ccccc2C1=O)OCC(=O)N1CCc2ccccc2C1, the “activity, negative = inhibition” value was inactive: -0.355%. For Cc1sc2nc(C3CC3)nc(N3CCN(C(=O)c4ccc(F)cc4)CC3)c2c1C, the Potency was inconclusive: 35.5 µM [inhibitor, single point]. For CC(/C=C1\SC(=S)N(NC(=O)c2cccc(O)c2)C1=O)=C\c1ccccc1, the Potency was inconclusive: 35.5 µM [inhibitor, single point]. In the case of O=Cc1ccc(Sc2nnc(-c3ccccc3)o2)c([N+](=O)[O-])c1, the Potency is reported as inconclusive: 14.1 µM [inhibitor, single point]. For COc1ccc(S(=O)(=O)NCC(c2ccco2)S(=O)(=O)c2cccs2)cc1C (stereo not given), the Potency was inconclusive: 4.47 µM [inhibitor, full curve, poor fit]. For CCOc1ccccc1C(=O)Nc1c(C(=O)Nc2ccc(F)cc2)oc2ccccc12, the Potency was inconclusive: 3.98 µM [inhibitor, full curve, poor fit]. For CCOc1ccc(C2Nc3c(C)cccc3-c3cc(C)nn32)cc1 (stereo not given), the Potency was inconclusive: 35.5 µM [inhibitor, single point]. In the case of O=C(CCS(=O)(=O)c1ccc(F)cc1)Nc1nnc(-c2ccco2)o1, the Potency is reported as inconclusive: 35.5 µM [inhibitor, single point]. With COc1ccc(C(=O)N/N=C/c2ccccc2OC(=O)c2ccccc2)cc1 the Potency was inconclusive: 10 µM [inhibitor, partial curve, poor fit]. For FC(F)Oc1ccc(NC(=S)NCc2ccccc2)cc1, the “activity, negative = inhibition” value was inactive: 0%. In the case of COc1cc(NC(=O)CN2C(=O)C(c3ccccc3)=NC23CCCCCC3)cc(OC)c1, the Potency is reported as inconclusive: 35.5 µM [inhibitor, single point]. In the case of COc1ccc(-c2nn(-c3ccccc3)cc2CNC[C@H]2O[C@@H](n3cnc4c(=O)[nH]c(N)nc43)[C@H](O)[C@@H]2O)cc1, the Potency is reported as inconclusive: 20 µM [inhibitor, partial curve, poor fit]. With N=C1S/C(=C\c2ccc(-c3cccc(Cl)c3)o2)C(=O)N1c1nccs1 the Potency was inconclusive: 3.55 µM [inhibitor, single point]. With Cc1ccc(C)c(NC(=S)NNC(=O)c2ccco2)c1 the Potency was inconclusive: 35.5 µM [inhibitor, single point]. In the case of CN(/N=C/c1cc(Cl)cc(Cl)c1O)C(=S)NC(C)(C)C, the Potency is reported as inconclusive: 25.1 µM [inhibitor, single point]. For COCOCCn1cc(CN2CCS(=O)(=O)N(Cc3ccc(-c4ccccc4)cc3)C(CC(C)C)C2=O)nn1 (stereo not given), the Potency was inconclusive: 22.4 µM [inhibitor, single point]. In the case of COc1ccc(OC)c(NC(=O)CN2C(=O)CSc3ccc(S(=O)(=O)N4CCCC4)cc32)c1, the “activity, negative = inhibition” value is reported as inactive: -9.97%.
